# Source: the antibiotic and cytotoxicity screens of Wong et al. (2023)
# The other results are listed elsewhere or left out.
# Test system: HSkMC (human skeletal muscle cells)
# Experiment: cytotoxicity call (relative viability < 0.9)
# Settings: 10 µM
row,SMILES,cytotoxicity call
1,CO[C@@H]1CN(C)C(=O)c2cc(NC(=O)Nc3c(C)noc3C)ccc2OC[C@@H](C)N(C(=O)Nc2cccc(Cl)c2)C[C@H]1C,inactive
2,C[C@@H]1CN([C@H](C)CO)C(=O)c2cc(C#CC3(O)CCCC3)cnc2O[C@@H]1CN(C)C(=O)Cc1ccccc1,inactive
3,CO[C@H]1CN(C)C(=O)c2ccc(NC(=O)C3CC3)cc2OC[C@@H](C)N(C(=O)C2CCOCC2)C[C@@H]1C,inactive
4,CCNC(=O)[C@@H]1N[C@@H]2c3ccc(-c4cccc(C(=O)N(C)C)c4)c(=O)n3C[C@@H]2[C@H]1CO,inactive
5,C[C@H](CO)N1C[C@H](C)[C@H](CN(C)S(=O)(=O)c2ccc(F)cc2)Oc2cc(C#Cc3ccncc3)ccc2S1(=O)=O,inactive
6,COc1ccc(NC(=O)Nc2ccc3c(c2)C(=O)N([C@H](C)CO)C[C@@H](C)[C@@H](CN(C)Cc2ccc(C(=O)O)cc2)OCCCC[C@@H](C)O3)cc1,inactive
7,COc1ccc(NC(=O)N(C)C[C@H]2Oc3ncc(C#C[C@@H](C)O)cc3C(=O)N([C@H](C)CO)C[C@H]2C)cc1,inactive
8,CCn1c2c(c3cc(C4CCCCC4)ccc31)CCC/C2=N\O,inactive
9,CN1CCN(C(=O)C[C@H]2CC[C@@H]3[C@@H](COc4ccc(NC(=O)C5CCOCC5)cc4C(=O)N3C)O2)CC1,inactive
10,Cc1noc(C)c1S(=O)(=O)Nc1ccc2c(c1)C(=O)N([C@H](C)CO)C[C@H](C)[C@H](CN(C)Cc1ccc(-c3ccccc3)cc1)O2,inactive

# Test system: HepG2
# Experiment: cytotoxicity call (relative viability < 0.9)
# Settings: 10 µM
row,SMILES,cytotoxicity call
1,CN1CCN(C(=O)[C@@H]2[C@@H](CO)[C@@H]3Cn4c(ccc(C5=CCCC5)c4=O)[C@H]2N3S(C)(=O)=O)CC1,inactive
2,C[C@@H]1CN([C@H](C)CO)C(=O)Cc2cc(NC(=O)Nc3ccc4c(c3)OCO4)ccc2O[C@@H]1CN(C)Cc1ccc(C(F)(F)F)cc1,active
3,C[C@@H]1CN([C@@H](C)CO)C(=O)c2ccccc2-c2ccccc2CO[C@@H]1CN(C)C(=O)N[C@H](C)c1ccccc1,inactive
4,O=C1C=CC(=O)N1,active
5,O=C(C[C@@H]1CC=CC[C@H](NC(=O)OCC2c3ccccc3-c3ccccc32)C(=O)O[C@H](c2ccccc2)CNC1=O)N[C@@H](CO)Cc1ccccc1,inactive
6,COc1ccc(CN(C)C[C@H]2Oc3ccc(NS(=O)(=O)c4cn(C)cn4)cc3CC(=O)N([C@H](C)CO)C[C@H]2C)cc1,inactive
7,COc1ccccc1-c1cnc2c(c1)C(=O)N([C@H](C)CO)C[C@H](C)[C@@H](CN(C)C(=O)c1cccnc1)O2,inactive
8,C[C@H]1CN([C@@H](C)CO)C(=O)Cc2cc(NC(=O)CCC(F)(F)F)ccc2O[C@@H]1CN(C)Cc1ccc(Oc2ccccc2)cc1,inactive
9,CC(C)NC(=O)Nc1ccc2c(c1)C(=O)N([C@H](C)CO)C[C@H](C)[C@@H](CN(C)S(=O)(=O)c1cn(C)cn1)OCCCC[C@@H](C)O2,inactive
10,CC(C)CC#Cc1cnc2c(c1)C(=O)N([C@H](C)CO)C[C@@H](C)[C@@H](CN(C)S(=O)(=O)c1ccccc1)O2,inactive
11,C[C@@H]1CCCCO[C@H](CN(C)CC2CCCCC2)[C@H](C)CN([C@H](C)CO)C(=O)c2cc(NS(=O)(=O)c3ccc(Cl)cc3)ccc2O1,inactive
12,C[C@@H]1CN([C@@H](C)CO)C(=O)c2cc(NC(=O)Cc3ccccc3)ccc2O[C@@H](C)CCCCO[C@@H]1CN(C)C(=O)Nc1ccc2c(c1)OCO2,inactive
13,C[C@@H]1CCCCO[C@@H](CN(C)C(=O)Nc2ccccc2)[C@H](C)CN([C@@H](C)CO)C(=O)c2cc(NC(=O)C3CCCCC3)ccc2O1,inactive
14,C[C@H](CO)N1C[C@H](C)[C@@H](CN(C)S(=O)(=O)c2ccc(Oc3ccccc3)cc2)OCc2cnnn2CCCC1=O,inactive
15,C[C@H]1CN([C@@H](C)CO)C(=O)c2cc(C#CC3(O)CCCC3)cnc2O[C@H]1CN(C)S(=O)(=O)c1ccc(F)cc1,inactive
16,C[C@H](CO)N1C[C@H](C)[C@@H](CN(C)C(=O)Nc2cccc(Oc3ccccn3)c2)OCc2cn(nn2)CCCC1=O,inactive
17,C[C@@H]1CN([C@@H](C)CO)C(=O)c2cc(NC(=O)Nc3ccc(F)cc3)ccc2O[C@@H]1CN(C)Cc1ccc(Cl)c(Cl)c1,active
18,C[C@H](CO)N1C[C@H](C)[C@H](CN(C)C(=O)CCCN(C)C)OCCCC[C@H](C)Oc2ccc(NC(=O)Nc3ccc(F)cc3)cc2C1=O,inactive
